According to patent US11891445 (ABL BIO, dated 2024):

T1: human B7-H3 expressed on a cell surface (human cancer cell lines) (human, UniProt Q5ZPR3 29-534)
T1 construct: whole, on cells; also called cell surface expression B7-H3 antigen
T1 sequence (looked up): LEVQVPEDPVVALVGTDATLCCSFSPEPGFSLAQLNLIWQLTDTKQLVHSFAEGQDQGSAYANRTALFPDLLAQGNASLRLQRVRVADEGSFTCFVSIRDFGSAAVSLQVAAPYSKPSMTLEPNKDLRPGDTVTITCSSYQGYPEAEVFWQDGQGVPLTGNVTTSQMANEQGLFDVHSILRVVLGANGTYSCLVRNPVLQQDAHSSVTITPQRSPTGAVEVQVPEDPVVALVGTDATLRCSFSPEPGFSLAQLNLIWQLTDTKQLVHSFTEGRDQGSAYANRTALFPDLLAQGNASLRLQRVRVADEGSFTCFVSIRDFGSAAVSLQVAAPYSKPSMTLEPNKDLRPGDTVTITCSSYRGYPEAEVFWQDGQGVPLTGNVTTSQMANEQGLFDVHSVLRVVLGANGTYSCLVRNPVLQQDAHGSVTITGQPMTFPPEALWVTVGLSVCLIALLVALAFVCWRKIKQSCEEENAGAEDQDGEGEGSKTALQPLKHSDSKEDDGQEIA


Key:
[1] = biological target: T1, human B7-H3 expressed on a cell surface …; assay: flow cytometry, HCC1187 cells, antibody 10 ug/ml
From the text: (§1) Using various kinds of cancer cells A2780 (human ovarian cancer, ECACC, 93112519), SKOV-3 (human ovarian adenocarcinoma, ATCC® HTB-77™) OVCAR-3 (human ovarian adenocarcinoma, ATCC® HTB-161™), HCT116 (colon cancer cell, ThermoFIshcer Sci), HT29 (olorectal adenocarcinoma, ATCC® HTB-38™), DLD-1 (colorectal adenocarcinoma cell lines, ATCC® CCL-221™), Calu-6 (Non-small-cell lung carcinoma, ATCC® HTB-56™), HCC1954 (TNM stage IIA, grade 3, ductal carcinoma, ATCC® CRL-2338™), HCC1187 (TNM stage IIA, ATCC® CLC-2322™), renal cancer cell line 786-0 (renal cell adenocarcinoma, ATCC® CRL-1932™), A498 (kidney carcinoma, ATCC® HTB-44™), Panc-1 (pancreas epithelioid carcinoma, TCC CRL-1469™), NCI-N87 (gastric carcinoma, TCC CRL-5822™), HeLa (cervix adenocarcinoma, ATCC® CCL-2™), JeKo-1 (Lymphoma, ATCC® CRL-3006™) and FACSCalibur (BD Biosciences) device, the degree of binding of anti-B7-H3 antibody to B7-H3 was measured as follows.
(§2) After dissociating each cell line and washing it with PBS buffer, the number of cells was counted and adjusted to 2×10^5 cells/200 µl PBS, and then was treated with 10 µg/ml of B7-H3 monoclonal antibodies prepared in Example 2. Reaction was allowed at 4° C. for 1 hr. After washing the reacted cells in PBS, the FITC-labeled constant region (Fc)-specific antibody (Goat anti-human IgG FITC conjugate, Fc specific, Sigma, F9512, concentration: 2.0 mg/ml)) was diluted by 1:500 and added 100 µl per well. and Reaction was allowed at 4° C. for 1 hr. After the reaction, cells were washed in PBS and analyzed using the FACSCalibur device. The negative control group was treated by the FITC-labeled constant region (Fc) specific antibody only. To compare expression degrees of B7-H3 among different cancer cell lines, the value for the peak shift in the experimental groups treated with the B7-H3 monoclonal antibody was divided by the value for the peak shift in the negative control group (MFI Ratio, Mean Fluorescence Intensity Ratio).

[2] = biological target: T1, human B7-H3 expressed on a cell surface …; assay: flow cytometry, HCT116 cells, antibody 10 ug/ml
From the text: as §1, §2

[3] = biological target: T1, human B7-H3 expressed on a cell surface …; assay: flow cytometry, Calu-6 cells, antibody 10 ug/ml
From the text: as §1, §2

[4] = biological target: T1, human B7-H3 expressed on a cell surface …; assay: flow cytometry, HCC1954 cells, antibody 10 ug/ml
From the text: as §1, §2

Binder | MFI Ratio [1] [ratio] | MFI Ratio [2] [ratio] | MFI Ratio [3] [ratio] | MFI Ratio [4] [ratio]
anti-B7-H3 antibody D8G (full IgG form) (antibody) heavy: EVQLLESGGGLVQPGGSLRLSCAASGFTFSSYSMSWVRQAPGKGLEWVSGIYSDGSNTYYADSVKGRFTISRDNSKNTLYLQMNSLRAEDTAVYYCAKMLHRFDYWGQGTLVTVSS[human IgG1 constant region not shown] light: QSVLTQPPSASGTPGQRVTISCSGSSSNIGSNSVTWYQQLPGTAPKLLIYADSQRPSGVPDRFSGSKSGTSASLAISGLRSEDEADYYCGTWDSSLNAYVFGGGTKLTVLGQPKAAPSVTLFPPSSEELQANKATLVCLISDFYPGAVTVAWKADSSPVKAGVETTTPSKQSNNKYAASSYLSLTPEQWKSHRSYSCQVTHEGSTVEKTVAPAECS | 13.3 | 7.9 | 43.2 | 25
anti-B7-H3 antibody 10F11 (full IgG form) (antibody) heavy: EVQLLESGGGLVQPGGSLRLSCAASGFTFSSYGMSWVRQAPGKGLEWVSGIYSGGSSKYYADSVKGRFTISRDNSKNTLYLQMNSLRAEDTAVYYCAKNRLRFDYWGQGTLVTVSS[human IgG1 constant region not shown] light: QSVLTQPPSASGTPGQRVTISCTGSSSNIGSNSVTWYQQLPGTAPKLLIYSDSHRPSGVPDRFSGSKSGTSASLAISGLRSEDEADYYCGTWDASLNAYVFGGGTKLTVLGQPKAAPSVTLFPPSSEELQANKATLVCLISDFYPGAVTVAWKADSSPVKAGVETTTPSKQSNNKYAASSYLSLTPEQWKSHRSYSCQVTHEGSTVEKTVAPAECS | 22 | 12 | 47.8 | 35
anti-B7-H3 antibody F6V (full IgG form) (antibody) heavy: EVQLLESGGGLVQPGGSLRLSCAASGFTFSDYAMSWVRQAPGKGLEWVSGISPGGSNTYYADSVKGRFTISRDNSKNTLYLQMNSLRAEDTAVYYCAKDAWIARLLLFDYWGQGTLVTVSS[human IgG1 constant region not shown] light: QSVLTQPPSASGTPGQRVTISCSGSSSNIGSNAVTWYQQLPGTAPKLLIYYNNKRPSGVPDRFSGSKSGTSASLAISGLRSEDEADYYCGTWDDSLSGYVFGGGTKLTVLGQPKAAPSVTLFPPSSEELQANKATLVCLISDFYPGAVTVAWKADSSPVKAGVETTTPSKQSNNKYAASSYLSLTPEQWKSHRSYSCQVTHEGSTVEKTVAPAECS | 18.4 | 10.8 |  | 30

The remaining lines, values ahead:

MFI Ratio [1] [ratio] | MFI Ratio [2] [ratio] | MFI Ratio [3] [ratio] | MFI Ratio [4] [ratio] | Binder
21.8 | 11.9 | 47.9 | 29 | anti-B7-H3 antibody B5 (full IgG form) (antibody) heavy: EVQLLESGGGLVQPGGSLRLSCAASGFTFSDYAMSWVRQAPGKGLEWVSSISSGSGSIYYADSVKGRFTISRDNSKNTLYLQMNSLRAEDTAVYYCAKNLIPLDYWGQGTLVTVSS[human IgG1 constant region not shown] light: QSVLTQPPSASGTPGQRVTISCSGSSSNIGSNAVSWYQQLPGTAPKLLIYYNSHRPSGVPDRFSGSKSGTSASLAISGLRSEDEADYYCGSWDASLNAYVFGGGTKLTVLGQPKAAPSVTLFPPSSEELQANKATLVCLISDFYPGAVTVAWKADSSPVKAGVETTTPSKQSNNKYAASSYLSLTPEQWKSHRSYSCQVTHEGSTVEKTVAPAECS
11.2 | 6.8 | 45.5 | 21 | anti-B7-H3 antibody C4I (full IgG form) (antibody, also called C41) heavy: EVQLLESGGGLVQPGGSLRLSCAASGFTFSGYYMSWVRQAPGKGLEWVSLISPSSGSIYYADSVKGRFTISRDNSKNTLYLQMNSLRAEDTAVYYCAKGLTKFDYWGQGTLVTVSS[human IgG1 constant region not shown] light: QSVLTQPPSASGTPGQRVTISCTGSSSNIGSNDVSWYQQLPGTAPKLLIYANSHRPSGVPDRFSGSKSGTSASLAISGLRSEDEADYYCGSWDDSLSGYVFGGGTKLTVLGQPKAAPSVTLFPPSSEELQANKATLVCLISDFYPGAVTVAWKADSSPVKAGVETTTPSKQSNNKYAASSYLSLTPEQWKSHRSYSCQVTHEGSTVEKTVAPAECS
